Data on 153 variants can be found in a collection of fitness landscapes (doi:10.1126/science.1257360).

Sequences and labels used below:
B1: PhoQ; a variant is named by its letters at X, in order, P23837 (parent)
chain: MKKLLRLFFPLSLRVRFLLATAAVVLVLSLAYGMVALIGYSVSFDKTTFRLLRGESNLFYTLAKWENNKLHVELPENIDKQSPTMTLIYDENGQLLWAQRDVPWLMKMIQPDWLKSNGFHEIEADVNDTSLLLSGDHSIQQQLQEVREDDDDAEMTHSVAVNVYPATSRMPKLTIVVVDTIPVELKSSYMVWSWFIYVLSANLLLVIPLLWVAAWWSLRPIEALAKEVRELEEHNRELLNPATTRELTSLVRNLNRLLKSERERYDKYRTTLTDLTHSLKTPLXXLQXXLRSLRSEKMSVSDAEPVMLEQISRISQQIGYYLHRASMRGGTLLSRELHPVAPLLDNLTSALNKVYQRKGVNISLDISPEISFVGEQNDFVEVMGNVLDNACKYCLEFVEISARQTDEHLYIVVEDDGPGIPLSKREVIFDRGQRVDTLRPGQGVGLAVAREITEQYEGKIVAGESMLGGARMEVIFGRQHSAPKDE

The list shows a part of the results.

In the experiment the parent is B1. Put plainly: enrichment ratio after two sorts for PhoP signalling (ratio (wild type AVST 3.29)); higher = more functional. As to conditions: with PhoP (E. coli).
For QTHD, the enrichment ratio is ≤ 0.25.

As for LLRC, the enrichment ratio was ≤ 0.25. For WPSN the value was ≤ 0.25; for PHLY, ≤ 0.25; for HQNY, ≤ 0.25. Take YEFY: the enrichment ratio was ≤ 0.25. Take SPNR: the enrichment ratio was ≤ 0.25. Regarding QFTT, the enrichment ratio is ≤ 0.25. On to YWDA, for which the enrichment ratio is ≤ 0.25.

With TSIA, the enrichment ratio came out at 2.99. As to NQWY, the enrichment ratio is ≤ 0.25.

For the variant LKQV, the enrichment ratio was ≤ 0.25. As for WDKV, the enrichment ratio is ≤ 0.25. On to ASYM, for which the enrichment ratio is 3.51. Regarding RGDH, the enrichment ratio was ≤ 0.25. As to DEEM, the enrichment ratio was ≤ 0.25. Turning to TRNG, the enrichment ratio was ≤ 0.25. For FYGY, the enrichment ratio was ≤ 0.25.

LREY: the enrichment ratio was ≤ 0.25. For the variant NALV, the enrichment ratio is ≤ 0.25. With NTNV, the enrichment ratio is ≤ 0.25. Turning to MYNS, the enrichment ratio was ≤ 0.25. In the case of RFQH, the enrichment ratio is ≤ 0.25. With VCNP, the enrichment ratio is ≤ 0.25.

Consider KHTK, for which the enrichment ratio is ≤ 0.25. In the case of QGYV, the enrichment ratio was found to be 11.2. RYST: the enrichment ratio is ≤ 0.25. Take LWVN: the enrichment ratio is ≤ 0.25. For MHTE the value was ≤ 0.25. Take LKHD: the enrichment ratio was ≤ 0.25.

Take FGRQ: the enrichment ratio was ≤ 0.25. For the variant SPAS, the enrichment ratio is ≤ 0.25. Consider NNCF, for which the enrichment ratio is ≤ 0.25.

For the variant HCSN, the enrichment ratio is ≤ 0.25. On to MFGW, for which the enrichment ratio is 2.97. As to HIWM, the enrichment ratio is ≤ 0.25. To SYQI belongs 0.292; to SVHY, ≤ 0.25; to QRML, ≤ 0.25. In the case of IKRH, the enrichment ratio was ≤ 0.25. On to WHSE, for which the enrichment ratio was ≤ 0.25. Take KSMD: the enrichment ratio is ≤ 0.25. On to TEHN, for which the enrichment ratio worked out at 11.9.

Consider TRDF, for which the enrichment ratio is ≤ 0.25.

For EGGY, the enrichment ratio is ≤ 0.25. To TACW belongs 6.03; to VHDW, ≤ 0.25; to FPGD, ≤ 0.25. Regarding QETQ, the enrichment ratio is ≤ 0.25. For HQQR, the enrichment ratio was ≤ 0.25. As for VQYS, the enrichment ratio was ≤ 0.25. With PHCA, the enrichment ratio is ≤ 0.25. Consider FYWR, for which the enrichment ratio is ≤ 0.25.

For the variant YMRW, the enrichment ratio is ≤ 0.25.

Regarding IQWR, the enrichment ratio is ≤ 0.25. As for GVSG, the enrichment ratio amounted to 7.26.

On to ATVT, for which the enrichment ratio is ≤ 0.25. Turning to AEPV, the enrichment ratio is ≤ 0.25. For the variant LMLM, the enrichment ratio was ≤ 0.25. For the variant YYNP, the enrichment ratio is ≤ 0.25.

Consider TSIY, for which the enrichment ratio is ≤ 0.25. ASWQ: the enrichment ratio is ≤ 0.25.

Turning to PNQW, the enrichment ratio is ≤ 0.25. To SYTK belongs ≤ 0.25; to EFLI, ≤ 0.25; to FMFY, ≤ 0.25. ESMV: the enrichment ratio is ≤ 0.25. For CLDL the value was ≤ 0.25. Take KNGN: the enrichment ratio was ≤ 0.25. To TYYR belongs ≤ 0.25; to QVMK, ≤ 0.25. Take QVFW: the enrichment ratio is ≤ 0.25. To HMSF belongs ≤ 0.25; to RRIG, ≤ 0.25. Regarding IYLG, the enrichment ratio is ≤ 0.25. For RIYS the value was ≤ 0.25. For FSIW the value was ≤ 0.25; for ECTP, ≤ 0.25; for LWIY, ≤ 0.25. Turning to KHSH, the enrichment ratio is ≤ 0.25. With DLTA, the enrichment ratio is ≤ 0.25. Regarding TNSH, the enrichment ratio turned out to be 10.4. As for CLTS, the enrichment ratio is ≤ 0.25. For the variant DVYE, the enrichment ratio is ≤ 0.25. With LLIQ, the enrichment ratio was ≤ 0.25.

Take DKFG: the enrichment ratio is ≤ 0.25. Turning to EYPK, the enrichment ratio was ≤ 0.25. In the case of ALKM, the enrichment ratio is ≤ 0.25. For LFHY the value was ≤ 0.25.

As for TYWA, the enrichment ratio was ≤ 0.25. On to AWYV, for which the enrichment ratio was ≤ 0.25. On to AFAV, for which the enrichment ratio was ≤ 0.25. RVIY: the enrichment ratio is ≤ 0.25. As to SAGW, the enrichment ratio was ≤ 0.25.

For MGRW, the enrichment ratio was ≤ 0.25. Take KGHT: the enrichment ratio is ≤ 0.25. Consider MGFF, for which the enrichment ratio is ≤ 0.25. For NMFV, the enrichment ratio was ≤ 0.25. Regarding SVQT, the enrichment ratio was ≤ 0.25. As to RNTI, the enrichment ratio is ≤ 0.25. QRWH: the enrichment ratio was ≤ 0.25. For SQTN the value was 8.46.

As to IRRG, the enrichment ratio is ≤ 0.25.

Take GYMV: the enrichment ratio stood at 0.333. Turning to VWLL, the enrichment ratio is ≤ 0.25. For QYYF the value was ≤ 0.25. In the case of ARLA, the enrichment ratio is ≤ 0.25. With FHDD, the enrichment ratio was ≤ 0.25. In the case of IWDH, the enrichment ratio is ≤ 0.25. For NNGL the value was ≤ 0.25. On to ANHQ, for which the enrichment ratio was ≤ 0.25. On to RNVL, for which the enrichment ratio was ≤ 0.25.

Take FSGQ: the enrichment ratio was ≤ 0.25.

With MAYA, the enrichment ratio was ≤ 0.25. In the case of QPAD, the enrichment ratio was ≤ 0.25. On to NYLG, for which the enrichment ratio was ≤ 0.25. Take IYTS: the enrichment ratio is ≤ 0.25.

VVYG: the enrichment ratio was ≤ 0.25.

In the case of RVQN, the enrichment ratio was ≤ 0.25. On to PHYE, for which the enrichment ratio was ≤ 0.25. On to AGVV, for which the enrichment ratio turned out to be 10.2. For YVWF, the enrichment ratio is ≤ 0.25. Consider NMAW, for which the enrichment ratio is ≤ 0.25. Turning to PNGE, the enrichment ratio was ≤ 0.25. Consider GMRA, for which the enrichment ratio was ≤ 0.25. To GHNQ belongs ≤ 0.25.

In the case of FSAT, the enrichment ratio was ≤ 0.25.

For DFSI, the enrichment ratio was ≤ 0.25.

In the case of DQHN, the enrichment ratio was ≤ 0.25. As for RFTE, the enrichment ratio was ≤ 0.25. To SKFK belongs ≤ 0.25. Regarding WQAM, the enrichment ratio was ≤ 0.25. On to RNVM, for which the enrichment ratio was ≤ 0.25. For VYHA, the enrichment ratio is ≤ 0.25.

Take DSMT: the enrichment ratio is ≤ 0.25.

For WRYM, the enrichment ratio is ≤ 0.25.

Consider GYPW, for which the enrichment ratio was ≤ 0.25. As for HNEI, the enrichment ratio is ≤ 0.25.

As to WDIP, the enrichment ratio was ≤ 0.25.

Turning to RWTG, the enrichment ratio was ≤ 0.25.

With YVSM, the enrichment ratio came to 0.373. KFLH: the enrichment ratio is ≤ 0.25.

Regarding ERVS, the enrichment ratio was ≤ 0.25. Take IWGP: the enrichment ratio is ≤ 0.25.

Consider PMPC, for which the enrichment ratio was ≤ 0.25. With SMNF, the enrichment ratio came out at 5.94. Regarding GPRW, the enrichment ratio is ≤ 0.25. Consider HKVC, for which the enrichment ratio is ≤ 0.25.

Take QARQ: the enrichment ratio is ≤ 0.25. Regarding TSYS, the enrichment ratio came out at 5.38. With HPVM, the enrichment ratio was ≤ 0.25. For TILE, the enrichment ratio was ≤ 0.25. For AVVY the value was ≤ 0.25.
